In ChEMBL document CHEMBL1201862, “PubChem BioAssay data set” (2004):
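Test compounds were applied to cells in 96-well plates for 48 hours at 5 doses. Abbreviation: GI50, concentration required for 50% inhibition of growth.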 Activity calls are given as the source filed them. Rule as the data show it: active = GI50 up to about 1.1 µM and inactive = higher. Peptide text beside a SMILES is read from it. * marks the point of attachment. Pentanoyl = CCCCC(=O)*; Boc = CC(C)(C)OC(=O)*

tested on: NCI-H322M; assay: DTP human tumour cell line panel, 48 h

| SMILES | GI50 |
| --- | --- |
| [O-][S+]1Nc2c(Cl)cc(Cl)c(Cl)c2S1 (centres undefined) | inactive: > 100 µM |
| N=C(N)NCCCC(Nc1c2ccccc2nc2ccccc12)C(=O)O (centres undefined) | inactive: > 100 µM |
| CC(C)[C@@H](C(=O)N1CCC[C@H]1C(=O)OCc1ccccc1)N(C)C(=O)[C@H](C(C)C)N(C)C(=O)[C@H](Cc1ccccc1)N(C)C(=O)[C@H](NC(=O)OC(C)(C)C)C(C)C (HELM PEPTIDE1{[CC(C)(C)OC(=O)[*:2]].[dV].[meF].[meV].[meV].P.[c1ccc(CO[*:1])cc1]}$$$$V2.0) | inactive: > 50 µM |
| COC(=O)CCCc1c(-c2[nH]c3ccccc3c2CCCC(=O)OC)[nH]c2ccccc12 | inactive: > 100 µM |
| C=C(CN(C)C)C(=O)c1ccc(C)cc1C | inactive: 28.2 µM |
| Cc1c(C(=O)CC(=O)C(=O)Nc2ccc(Cl)c(Cl)c2)[n+]([O-])c2ccccc2[n+]1[O-] | inactive: 22.1 µM |
| COC(=O)C1=C(C(=O)NNc2ccccc2)N(c2cccnc2Cl)C(c2ccccc2)=CC1c1ccccc1 (centres undefined) | inactive: 43.7 µM |
| CC1(C)CC(=O)C(CC(C(=O)C(=O)Nc2cc(C(F)(F)F)ccc2Cl)C(=O)c2ccco2)C(=O)C1 (centres undefined) | inactive: > 100 µM |
| COc1cc(C(=O)NNC(=O)c2cc(Br)ccc2NC(=O)c2cccs2)cc(OC)c1OC | inactive: 22.4 µM |
| CCOC(=O)C(C(=O)OCC)C(=S)NC1OC(COC(C)=O)C(OC(C)=O)C(OC(C)=O)C1OC(C)=O (centres undefined) | inactive: > 100 µM |
| COc1cc([N+](=O)[O-])c(S(=O)(=O)[O-])cc1-[n+]1nc(C(=O)Nc2ccccc2)nn1-c1ccc([N+](=O)[O-])c(S(=O)(=O)O)c1 | inactive: 28 µM |
| OC(c1cc2ccccc2o1)c1cc2ccccc2s1 (centres undefined) | inactive: > 10 µM |
| O=c1[nH]cc(COCCCO)c(=O)[nH]1 | inactive: > 100 µM |
| O=c1c2cccnc2[s+]([O-])n1Cc1ccccc1 (centres undefined) | inactive: > 100 µM |
| C[C@H](CCC(=O)NCC(=O)O)[C@H]1CC[C@H]2[C@@H]3[C@H](O)C[C@@H]4C[C@H](O)CC[C@]4(C)[C@H]3CC[C@]12C | inactive: > 100 µM |
| CC(=O)C1(c2ccccc2)CCN(Cn2sc3nc(C)cc(C)c3c2=O)CC1 | inactive: 64.6 µM |
| COc1cc2c(cc1OC)-c1[nH]c3ccc([N+](=O)[O-])cc3c1CC(=O)N2 | inactive: 3 µM |
| COc1cc2c(cc1OCCN1C(=O)c3cccc4cccc(c34)C1=O)N=C[C@@H]1CCCN1C2=O | inactive: 20.1 µM |
| CC1=NN(c2ccc(S(=O)(=O)O)cc2)C2(C1)SCC(=O)N2c1nc2ccccc2s1 (centres undefined) | inactive: > 100 µM |
| COC(=O)C1=COC2OC3CC1C2C(C)O3 (centres undefined) | inactive: > 100 µM |
| CS(=O)(=O)N(N(CCCl)S(=O)(=O)c1ccccc1)S(C)(=O)=O | inactive: > 100 µM |

| SMILES | GI50 |
| --- | --- |
| COC(=O)/C=C(/C=C1/C(C#N)=C(N)N(c2ccc(Cl)cc2)C1(C)/C(=C\C(=O)OC)C(=O)OC)C(=O)OC (centres undefined) | inactive: 45.4 µM |
| CCOC(=O)Cn1c(=O)[nH]c(=O)c2[nH]cnc21 | inactive: > 100 µM |
| O=C(Oc1cccc2cccnc12)c1cc2cc(CCl)ccc2oc1=O | inactive: 30 µM |
| Nc1c(C(=O)O)nnc2cc(Cl)ccc12 | inactive: > 100 µM |
| CSC(=Nc1nnc(-c2ccc([N+](=O)[O-])cc2)s1)SC | inactive: 50.1 µM |
| CCOC(CN(C)C(=O)Nc1cccc2ccccc12)OCC | inactive: > 10 µM |
| O=Cc1c2c(cc3c1CC1(C3)Cc3cc4c(c(C=O)c3C1)CCC4)CCC2 | inactive: 55.1 µM |
| Oc1c(CN2CCN(c3ccccc3)CC2)cc(Br)c2cccnc12 | inactive: 1.85 µM |
| C/C1=C\[C@H](C)C[C@H](C)OC(=O)C[C@H](c2ccc(O)cc2)NC(=O)[C@@H](Cc2c(Br)[nH]c3ccccc23)N(C)C(=O)[C@H](C)NC(=O)[C@@H](C)C1 [JASPAMIDE] | active: 0.834 µM |
| O=C(c1ccccc1)N1CCc2c([nH]c3ccccc23)C1 | inactive: > 100 µM |
| ClC/C=C/COC1CCCCO1 (centres undefined) | inactive: > 100 µM |
| CCCCCCNCCc1c[nH]cn1 | inactive: > 100 µM |
| O=C1C(Cl)=C(Cl)C(Cl)(Cl)C(Cl)C1(Cl)Cl (centres undefined) | inactive: 13.5 µM |
| Cc1ccc(C2SC(=N)Nc3c2c(C)nn3C(=O)c2ccccc2O)cc1 (centres undefined) | inactive: > 10 µM |
| CC1(c2cccc(C3CCC4(C=CC3=O)OCCO4)c2)OCCO1 (centres undefined) | inactive: 20.7 µM |
| O=C1Sc2ccccc2NC1=C(C(=O)c1ccccc1)C(=O)c1ccccc1 | inactive: 31.3 µM |
| CC1(O)CC2(O)C=CC3=C(C(=O)c4cccc(O)c4C3=O)C2(O)C(=O)C1O (centres undefined) | inactive: 11.4 µM |
| COCOCC[C@@H]1CC=CC(NC(=O)OCc2ccccc2)C1/C=C/C(=O)CCC1OCCO1 (some centres undefined) | inactive: 70.8 µM |
| O=[N+]([O-])c1ccc2c(c1)Sc1ccccc1N2 | inactive: > 100 µM |
| O=S(=O)(O)c1cc(O)c(/N=N/c2ccc3ccccc3c2O)c2ccccc12 [ERIOCHROME BLUE BLACK B] | inactive: 27.9 µM |
| O=C1/C(=C/c2ccco2)N=C(c2ccccc2)N1c1ccc(S(=O)(=O)Nc2nccs2)cc1 | inactive: > 100 µM |

| SMILES | GI50 |
| --- | --- |
| CC(=O)/N=C1\C=C(NC(C)=O)C(=O)c2ccccc21 | inactive: 13.7 µM |
| CC1=C(C(=O)Nc2ccccc2C)C(c2ccc(C3C(C(=O)Nc4ccccc4C)=CNC=C3C(=O)Nc3ccccc3C)cc2)C(C(=O)Nc2ccccc2C)=C(C)N1 | inactive: 15.3 µM |
| Cc1nc2ccccc2c(=O)n1/N=C(\N=N\c1cc(Cl)ccc1Cl)c1cccc(-c2ccco2)c1 | inactive: > 100 µM |
| CSc1nc2c(c(N(C)C)n1)C(O)n1c(nc3ccccc31)S2 (centres undefined) | inactive: 98.9 µM |
| CC(=O)OCC1OC(c2c(OC(C)=O)cc(C)c3c(=O)cc(/C(C(C)=O)=C(\C)O)oc23)C(OC(C)=O)C(OC(C)=O)C1OC(C)=O (centres undefined) | inactive: > 100 µM |
| C/C(=C\c1csc(C)n1)[C@@H]1C[C@@H]2O[C@@H]2CCC[C@H](C)[C@H](O)[C@@H](C)C(=O)C(C)(C)[C@@H](O)CC(=O)O1 [EPOTHILONE A] | active: < 0.0001 µM |
| COc1cc(/C=C/C(=N\NS(=O)(=O)c2ccc(C)cc2)c2sc(NNC(C)=O)nc2C)ccc1O | inactive: > 100 µM |
| O=C1C(Sc2ccc3ccccc3c2)=C(Sc2ccc3ccccc3c2)C(=O)c2ccccc21 | inactive: 19 µM |
| CC1=COC(=O)c2ccccc2N1 | inactive: > 100 µM |
| COc1cc(OC)cc(-n2c(N)c(C#N)c3ccc([N+](=O)[O-])cc3c2=O)c1 | inactive: 27.1 µM |
| O=C1OC(c2ccccc2Br)=N/C1=C/c1ccccc1 | inactive: > 100 µM |
| CN(C)c1ccc(/C=C2\N=C(c3ccccc3)N(c3nc4c(Cl)cc(Cl)cc4s3)C2=O)cc1 | inactive: 82.4 µM |
| COC(=O)/C=C(/C(=O)OC)C1(C)c2cc(C(=O)OC)c(C(=O)OC)c(N)c2C(=N)N1c1ccccc1 (centres undefined) | inactive: 55.7 µM |
| COC(=O)C1(C(=O)OC)CC(=O)c2cc3c(cc2-c2c(cc(OC)c(OC)c2OC)C1)OCO3 | inactive: > 211 µM |
| CCCCC(=O)Oc1ccc(CC(NC(=O)OC(C)(C)C)C(=O)NC(C)C(=O)NC(Cc2ccccc2)C(=O)NCC(N)=O)cc1 (centres undefined) (Boc-Y(Pentanoyl)AFG-NH2; configuration not given here) | inactive: 18.7 µM |
| CSc1ccc(/C=C/c2ccnc3ccccc23)cc1 | inactive: 18.2 µM |
| CN(C(=O)C12C3C4C1C1C2C3C41I)C(C)(C)C (centres undefined) | inactive: > 100 µM |
| CCOC(=O)n1c2ccccc2c(=O)n1CCO | inactive: > 100 µM |
| COc1ccc2c(c1)CC[C@@H]1C2CC[C@]2(C)OC(=O)CCC12 (some centres undefined) | inactive: 66.4 µM |
| c1ccc(-c2nn(-c3ccccc3)[n+](-c3ccccc3)n2)cc1 [TETRAZOLIUM RED] | inactive: 19.1 µM |
| CO/N=C1\CC(NC(=O)CNC(=O)OC(C)(C)C)c2ccsc21 (centres undefined) | inactive: > 100 µM |

| SMILES | GI50 |
| --- | --- |
| CC(NNC(=O)c1ccncc1)c1cccc(C(F)(F)F)c1 (centres undefined) | inactive: > 100 µM |
| N=C(N)N/N=C/c1c(-c2ccc(Cl)c([N+](=O)[O-])c2)nc2sccn12 | inactive: 1.58 µM |
| CCOC(=O)C1(N)CC1 | inactive: > 100 µM |
| CCOC(=O)C(C#N)C1=CC(=O)C(=O)c2ccc(OC)cc21 (centres undefined) | inactive: 25.6 µM |
| CC(C)OC(=O)c1cccnc1/C=N/O | inactive: > 100 µM |
| O=c1c2cc(-c3ccccc3)sc2nc2sc(-c3ccccc3)nn12 | inactive: > 100 µM |
| Cc1ccsc1/C=N/Nc1cc(C)c2cccc(C)c2n1 | inactive: > 100 µM |
| C=C1C(=O)O[C@@H]2C[C@@H](C)[C@@H]3C=CC(=O)[C@@]3(C)[C@@H](OC(=O)CC(=O)O[C@H]3[C@@H]4C(=C)C(=O)O[C@@H]4C[C@@H](C)[C@@H]4C=CC(=O)[C@]43C)[C@H]12 | active: 0.259 µM |
| Cn1c(=O)c2nc(CSCc3ccccc3)[nH]c2n(C)c1=O | inactive: > 100 µM |
| Nc1nc(N)nc(-c2ccccc2NS(=O)(=O)c2ccc([N+](=O)[O-])cc2)n1 | inactive: > 100 µM |
| CC(C)N(O)C(=N)c1ccccc1 | inactive: > 100 µM |
| O=C1C2=C(C(c3ccccc3)=C1c1ccccc1)c1ccccc1C1(c3ccccc3)C2=C(O)C(c2ccccc2)=C1c1ccccc1 (centres undefined) | inactive: > 100 µM |
| COC(OC)C1OC(CO)C(n2cc(C)c(=O)[nH]c2=O)C1O (centres undefined) | inactive: > 100 µM |
| CC(=O)OC[C@]1(C(=O)C(O)c2ccoc2)[C@H](C)CC[C@@]23COC(=O)C2=CCC[C@@H]31 (some centres undefined) | inactive: > 10 µM |
| CCCNC(=S)N/C=C1\C(=O)Nc2ccccc2C1=O | inactive: > 100 µM |
| O=P(Nc1ccc(Cl)cc1)(Oc1ccccc1)N(CCCl)CCCl (centres undefined) | inactive: > 100 µM |
| CC(=O)NNc1nc(C)c(C(/C=C/c2ccc(NC(C)=O)cc2)=N/NS(=O)(=O)c2ccc(C)cc2)s1 | inactive: > 100 µM |
| CC(C)(Cl)C(Br)CCC(C)(Br)C(Br)CBr (centres undefined) | inactive: 23.8 µM |
| Cc1ncc([N+](=O)[O-])n1CCNC(=O)CCCn1cnc([N+](=O)[O-])n1 | inactive: > 100 µM |
| C=CCN1C(=O)NC(=O)/C(=C/c2c3ccccc3cc3ccccc23)C1=O | inactive: 22.7 µM |
| CC(=O)OC[C@H]1On2nnnc2[C@H](OC(C)=O)[C@@H](OC(C)=O)[C@@H]1OC(C)=O | inactive: > 100 µM |
